# The list shows a part of the results. Shown are side measurements of this screen, not its main read-out; they come without a call.
# Assay: compounds boosting herpes simplex virus growth – fold increase, host cell viability (AID 1956); further: tested in PC3 cells
# Conditions: HSV replication augmentation in cells; fold increase: measured here: primary screen fold increase 10 uM, at 10 µM, stronger effect = higher value; viability: measured here: host cell viability series, at 25 µM, stronger effect = lower value
Structure (SMILES),fold increase,viability [%]
CCC[C@@H]1C[C@@]1(CCC)[C@@H](NC(=O)c1ccccc1)c1ccc(C(=O)OC)cc1,1.52,97.4
O=C(COC(=O)c1ccc[nH]c1=O)NC1CCCCC1,1.38,109
N#C/C(=C\c1ccc(N2CCOCC2)o1)C(=O)NCC1CCCO1 (stereo not drawn),2.23,
CCOc1cc(/C=C2/SC(=S)N(CC(=O)O)C2=O)ccc1OC(=O)c1cccs1,1.91,92.8
COc1cc(OC)c(OC)cc1/C=C1\Oc2cc(OS(C)(=O)=O)ccc2C1=O,1.79,86.2
CCN(CC)CCNC(CC(=O)Nc1ccc(Cl)cc1Cl)C(=O)O (stereo not drawn),1.41,92.6
O=C(CSc1nnc2n1CCCN2)c1ccccc1,1.36,99.7
CC(C)COC(=O)C1C2C=CC3(CN(C(C)c4ccc(Br)cc4)C(=O)C13)O2 (stereo not drawn),1.42,98.2
CN(c1nc2nonc2nc1NC1CC1)C1CCOC1 (stereo not drawn),1.35,99.1
Cn1cc(/C=N\O)nc2c(=O)n(-c3ccccc3)c(=O)nc1-2,2.57,104
Cc1sc2nc(COC(=O)c3ccc(N4CCCC4)c([N+](=O)[O-])c3)[nH]c(=O)c2c1C,1.5,94.5
CC1(C)Cc2ccccc2C2CC(O)C(=O)N21 (stereo not drawn),1.65,91.4
Cc1ccc(F)cc1NC(=O)N1c2ccccc2NC(=O)CC1C (stereo not drawn),1.32,
CCOc1cc(/C=C(/C#N)C(=O)Nc2ccc(O)cc2)cc(Br)c1O,2.62,44.3
COc1cc(/C=C2\NC(=S)N(C)C2=O)ccc1O,1.4,94.5
CC(=Nc1ccc(C)cc1C)c1sc2ccccc2c1O,1.51,
COc1cc(/C=C/C(=O)C2C(=O)C=C(C)OC2=O)cc(OC)c1O (stereo not drawn),1.78,95.5
Cc1ccc(N2C(=O)c3cccc4c(N)ccc(c34)C2=O)c2cccnc12,9.47,41.8
O=C(CN(Cc1ccccc1)C(=O)CSc1nnc(COc2ccccc2)o1)NC1CCCC1,1.26,
Cc1csc(SC(C)C(=O)NCc2ccc3c(c2)OCO3)n1 (stereo not drawn),1.38,93.2
COc1cc(C2C(C#N)=C(N)OC3=C2C(=O)CCC3)c([N+](=O)[O-])cc1OC (stereo not drawn),1.35,
O=C(c1ccc(Cl)c([N+](=O)[O-])c1)N1CCN(C(=O)c2ccco2)CC1,1.6,96.4
O=C(/C=C/c1ccc(N2CCC(c3ccccc3)=N2)cc1)c1ccccc1,9.36,90.4
Brc1ccc(C2=CC(c3cccs3)n3ncnc3N2)cc1 (stereo not drawn),7.86,81.8

Structure (SMILES),fold increase,viability [%]
COc1ccccc1N1C(=O)C2C(C(=O)c3ccccc3)=NN(c3ccccc3OC)C2C1=O (stereo not drawn),2.07,96.2
Cc1nn(C)cc1N1C(=O)c2cccc3c(N)ccc(c23)C1=O,9.53,
N#CC1=C(N)Oc2cc(O)ccc2C1c1cccs1 (stereo not drawn),2.74,85.7
CCN1CCN(C(c2cccs2)C(C)NC(=O)CC(C)C)CC1 (stereo not drawn),1.39,
CCOC(=O)C1=C(N)Oc2c(oc(CO)cc2=O)C1c1ccc(F)c(F)c1 (stereo not drawn),1.4,87.5
CC(=O)c1ccc(NC(=O)C(C)OC(=O)C(C)Oc2cccc(C)c2)cc1 (stereo not drawn),1.35,98.7
CCO/C(C)=C1/SC(=S)NC1=O,1.56,97.6
CC(=O)Oc1c(Cl)cc(Cl)cc1/C=C/c1ccc2ccccc2n1,1.89,85.9
Cc1cc[n+](-c2[nH]c(=O)sc2/C=N/NC([S-])=Nc2ccccc2)cc1,1.45,94.1
C=CCN1C(=O)[C@]2(c3ccccc31)C1CCCC=C1C(C#N)=C(N)C2(C#N)C#N (stereo partly drawn),1.56,94.8
Cc1ccc(NC2=C(C(=O)c3ccccc3)N(C)S(=O)(=O)c3ccccc32)cc1,1.16,
C=CCN1C(=O)CS/C1=N\S(=O)(=O)c1ccc(Cl)cc1,1.59,
O=C(COC(=O)c1ccc(S(=O)(=O)NCc2ccco2)cc1)Nc1ccc(OC(F)F)cc1,1.16,
CCC1CCCCN1C(=O)CSc1nnc(-c2ccc(OC)cc2)o1 (stereo not drawn),1.33,88.9
O=C(c1ccc(-c2ccccc2)cc1)c1ccc([N+](=O)[O-])cc1,1.4,105
Cc1ccc(-c2ccc(/C=C(\C#N)C(=O)Nc3cc(C)nn3-c3ccccc3)o2)cc1,1.38,
CN1CCc2c(sc3c2C(=O)NC(c2cccs2)N3)C1 (stereo not drawn),1.66,93.7
COc1c(Cl)ccc(Cl)c1C(=O)NC(=O)N1CCOCC1,1.36,96.6
O=S(=O)(c1cccs1)N1CN(Cc2ccco2)c2nc3ccccc3nc21,1.72,96.7
CN1CCCNc2nc3ccccc3nc21,1.34,99.1
CC1=C(C#N)C(=O)OC(C)(C)C1,1.38,103
O=c1[nH]c2ccc([N+](=O)[O-])cc2nc1/C=C(\O)c1ccccc1,1.33,85
COC(/C=C/Nc1ccc(C)c(C)c1)=C(C#N)C#N,1.4,95.3
CCCCCCN1C=CC(=C/C=C(\C#N)C(=O)OCC)C=C1,6.08,96.7

Structure (SMILES),fold increase,viability [%]
COc1cc(/C=c2\sc3n(c2=O)C(c2ccccc2)C(c2ccccc2)=NN=3)ccc1O (stereo not drawn),1.72,89.7
Cc1n[nH]c(C)c1N1C(=O)c2cccc3c(Br)ccc(c23)C1=O,4.32,100
N#C/C(=C(/O)c1ccc([N+](=O)[O-])o1)c1nc2ccccc2[nH]1,15.3,34.7
Cc1ccnc(N2C(=O)c3cccc4c([N+](=O)[O-])ccc(c34)C2=O)c1,2.44,2.67
O=C1c2cccc3c(O)ccc(c23)C(=O)N1Cc1ccccc1,4.52,97.6
CCCCOc1ccc(C2OC34CCCCC3C(C#N)(C#N)C2(C#N)C(=N)O4)cc1 (stereo not drawn),1.44,91.6
CC1CCN(Cc2ccc(NC(=O)C3CCN(c4nnc(-n5cccc5)s4)CC3)cc2)CC1,1.35,85.7
COc1cccc(/C=N/Nc2nc3ccccc3n3cnnc23)c1O,2.55,
COc1cccc(C2C=C(c3ccc(OC)cc3OC)Nc3nnnn32)c1 (stereo not drawn),1.32,63.2
CCOCCCN1CN(S(=O)(=O)c2ccc(Cl)cc2)c2nc3ccccc3nc21,1.34,95.9
COc1c(N2CCN(C(=S)NCc3ccccc3)C(C)C2)c(F)cc2c(=O)c(C(=O)O)cn(C3CC3)c12 (stereo not drawn),1.38,
O=C(N/N=C/c1cc([N+](=O)[O-])ccc1O)c1ccncc1,1.59,99.8
CC(=O)N1CCN(c2ccc(NCc3cccs3)cc2)CC1,1.31,
NC(=S)NN=C(Cc1ccccc1)Cc1ccccc1,1.46,
CCN1CCN(Cc2c(O)ccc3c2O/C(=C\C=C\c2ccccc2OC)C3=O)CC1,4.14,85.7
COc1ccc(N2C(=O)C3CCCN3C2c2ccccc2F)cc1 (stereo not drawn),1.35,104
Cc1ccsc1C=Nc1ccc(O)cc1,1.38,93.5
CC(=O)OCCn1c2nc(=O)[nH]c(=O)c-2nc2cc(C)c(C)cc21,8.61,
COc1cc(/C=C2/SC(=Nc3ccc(O)cc3)NC2=O)cc(OC)c1O,4.36,70.1
COC(=O)c1sc2nc(CN3CCN(c4cccc(C(F)(F)F)c4)CC3)[nH]c(=O)c2c1C,1.81,103
COc1ccc(CNC(=S)Nc2cc(C)cc(C)c2)cc1,1.2,
Cc1ccc(C2C(C(=O)c3cccs3)=C(O)C(=O)N2c2nnc(C)s2)cc1 (stereo not drawn),2.6,
CC(=O)C1=C(O)CCC1=NCCc1ccccc1,1.35,95
O=S(=O)([N-]c1nc2ccccc2nc1-[n+]1ccc(-c2ccncc2)cc1)c1ccccc1,1.81,102

Structure (SMILES),fold increase,viability [%]
CCOC(=O)C1(Cc2ccc(OC)cc2)CCN(C(=O)Cc2cccnc2)CC1,1.34,94.5
CCc1ccccc1N1CC23C=CC(O2)C(C(=O)O)C3C1=O (stereo not drawn),1.39,104
C/C(CCc1ccc2c(c1)OCO2)=N\N=C1\NC(=O)CC(C(=O)Nc2ccccc2)S1 (stereo not drawn),1.42,87.8
CN(C)c1ccc(/C=C/C(=O)c2c(O)c3ccccc3oc2=O)cc1,1.95,91
Cc1[nH]c2ccccc2c1/C=N/Nc1ccc([N+](=O)[O-])cc1S(=O)(=O)Nc1ccc(Cl)cc1,1.56,73.8
NC(=O)c1ccc(NC(=O)COC(=O)c2c3c(nc4ccccc24)/C(=C\c2ccc4c(c2)OCO4)CCC3)cc1,5.75,46
O=C(NCCCl)Nc1cccc(Br)c1,1.33,94.3
COc1ccc(/C=C2\C(=O)NC(=S)N2C(=O)c2ccc(F)cc2)cc1,7.41,100
Cc1cc(C(=O)Nc2ccc3c(c2)OCCO3)c2ccccc2n1,1.45,101
O=C(CNS(=O)(=O)c1ccccc1)Nc1ccc(C(F)(F)F)cc1,1.42,97.9
COc1ccc(/C=C/C(=O)NC(=S)NN2CCCCC2c2cccnc2)cc1 (stereo not drawn),1.39,97
Cc1ccc(-c2nc(NC(=O)CSc3cc(C)c4ccccc4n3)ns2)cc1,1.45,98.2
C/C(=N\NC(=O)c1[nH]c2c([N+](=O)[O-])cc(C)cc2c1-c1ccccc1)c1cccnc1,0.99,
O=C1c2ccccc2S(=O)(=O)N1CC(O)Cn1ccc2ccccc21 (stereo not drawn),2.39,107
O=C(N[C@@H](Cc1ccccc1)C(=O)OCc1ccccc1)c1nc[nH]c1C(=O)N1CCc2ccccc2C1,1.32,
CCc1ccc(NCc2cc3c(C)nn(-c4ccccc4)c3[nH]c2=O)cc1,1.33,89.5
Nc1c(C(=O)O)ccc2c1C(=O)c1ccccc1C2=O,1.32,90.3
N#C/C(=C\c1ccc(O)cc1)c1nc2ccccc2o1,3.72,89.3
N#C/C(C(=O)NCc1ccccc1)=C1/N=C(NC(=O)c2cccs2)c2ccccc21,1.32,
CCNc1nc(NCC)n2c(SC(C)C(=O)c3ccc(C)cc3)nnc2n1 (stereo not drawn),1.36,86.9
CCCn1c(=O)c(C(=O)c2ccccc2)nc2ccccc21,1.34,93.5
C#CCN1C(=O)S/C(=C/C=C/c2ccc(N(C)C)cc2)C1=O,3.17,
N=C1/C(=C\c2ccc(SCc3ccco3)o2)C(=O)N=C2SC=NN12,1.84,98.7

# From PubChem BioAssay AID1956 (SRMLSC, 2009)
